A lower IC50 marks a more sensitive line; a fit beyond the top or the lowest dose is shown as a bound at that dose. For AUC the same curve is integrated over the 256-fold range of doses and scaled to a fraction; it is 1 without any effect and falls as sensitivity rises. For some of these results: A top dose marked as inferred was calculated from the reported fits. For some of these results: An entry number marks a drug with two screens in the source, which often give different values.
Experiments:
Assay in all cases: Viability of human cancer cell lines after 72 h of drug (GDSC screen)
[1] = compound: CCOc1nc(NC(=O)Cc2cc(OC)ccc2OC)cc(N)c1C#N [JNK Inhibitor VIII]; conditions: top dose 10 µM; top dose inferred
Procedure: (§1)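 Human cancer cell lines in 384-well plates, medium with 10% serum, drug for 72 h over a 256-fold dose range (nine 2-fold or five 4-fold steps up to the top dose). Adherent lines were fixed and stained with the nucleic acid dye Syto60, suspension lines read with resazurin; signal relative to control wells, capped at 0 and 100%. One two-parameter sigmoid per drug and line, fitted in a mixed model over all curves with the slope shared within a line.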

[2] = compound: Cc1ccc(C(=O)N(CCCN)[C@@H](c2nc3cc(Cl)ccc3c(=O)n2Cc2ccccc2)C(C)C)cc1 [SB-715992]; conditions: top dose 0.128 µM; top dose inferred
Procedure: as §1

[3] = compound: c1ccc2c(CCNc3ccc(Nc4ccncc4)cc3)c[nH]c2c1 [JNJ-26854165]; conditions: top dose 10 µM
Procedure: as §1

[4] = compound: CN1CCN(c2ccc([N+](=O)[O-])c3no[n+]([O-])c23)CC1 [NSC-207895]; conditions: top dose 20 µM; top dose inferred
Procedure: as §1

[5] = compound: COCC[n+]1c2c(n(Cc3cnccn3)c1C)C(=O)c1ccccc1C2=O [YM155]; conditions: top dose 5.12 µM
Procedure: as §1

[6] = compound: O=C(/C=C/c1cccc(S(=O)(=O)Nc2ccccc2)c1)NO [Belinostat]; conditions: top dose 20 µM; top dose inferred
Procedure: as §1

[7] = compound: CC1=C2C[C@H]3[C@@H](CC=C4C[C@@H](O)CC[C@@]43C)[C@@H]2CC[C@]12O[C@@H]1C[C@H](C)CN[C@H]1[C@H]2C [Cyclopamine]; conditions: top dose 16 µM; top dose inferred
Procedure: as §1

[8] = compound: COC(=O)[C@H](CCSC)NC(=O)c1ccc(NC[C@@H](N)CS)cc1-c1ccccc1 [FTI-277]; conditions: top dose 1.024 µM; top dose inferred
Procedure: as §1

[9] = compound: CC(=O)O[C@@]12CO[C@@H]1C[C@H](O)[C@@]1(C)C(=O)[C@H](O)C3=C(C)[C@@H](OC(=O)[C@H](O)[C@@H](NC(=O)OC(C)(C)C)c4ccccc4)C[C@@](O)([C@@H](OC(=O)c4ccccc4)[C@H]21)C3(C)C [Docetaxel]; conditions: top dose 0.0125 µM
Procedure: as §1

[10] = compound: Cc1sc2c(c1C)C(c1ccc(Cl)cc1)=N[C@@H](CC(=O)OC(C)(C)C)c1nnc(C)n1-2 [JQ1]
Procedure: as §1

[11] = compound: CC1(C)CNc2cc(NC(=O)c3cccnc3NCc3ccncc3)ccc21 [AMG-706]; conditions: top dose 2 µM; top dose inferred
Procedure: as §1

[12] = compound: OCCCNc1cc(-c2ccnc(Nc3cccc(Cl)c3)n2)ccn1 [CGP-60474]; conditions: top dose 0.256 µM; top dose inferred
Procedure: as §1

[13] = compound: C[C@]1(O)C[C@@H](c2nc(-c3ccc4ccc(-c5ccccc5)nc4c3)c3c(N)nccn32)C1 [OSI-906]; conditions: top dose 2.56 µM; top dose inferred
Procedure: as §1

[14] = compound: COc1cc(N2CCC(N3CCN(C)CC3)CC2)ccc1Nc1ncc(Cl)c(Nc2ccccc2S(=O)(=O)C(C)C)n1 [NVP-TAE684]; conditions: top dose 2 µM
Procedure: as §1

[15] = top dose 1 µM, screen: GDSC drug entry 1218, top dose inferred
[16] = top dose 2.56 µM, screen: GDSC drug entry 163

Row | Cell Line | AUC [1] | IC50 [1] [nM] | AUC [2] | IC50 [2] [nM] | AUC [3] | IC50 [3] [nM] | AUC [4] | IC50 [4] [nM] | AUC [5] | IC50 [5] [nM] | AUC [6] | IC50 [6] [nM] | AUC [7] | IC50 [7] [nM] | AUC [8] | IC50 [8] [nM] | AUC [9] | IC50 [9] [nM] | AUC [10, 15] | IC50 [10, 15] [nM] | AUC [10, 16] | IC50 [10, 16] [nM] | AUC [11] | IC50 [11] [nM] | AUC [12] | IC50 [12] [nM] | AUC [13] | IC50 [13] [nM] | AUC [14] | IC50 [14] [nM]
1 | GB-1 (glioma, adherent) | 0.968 | > 10000 | 0.866 | > 128 | 0.952 | > 10000 | 0.793 | 11000 | 0.045 | < 20 | 0.249 | 204 | 0.911 | > 16000 | 0.976 | > 1020 | 0.788 | 6.55 | 0.98 | > 1000 | 0.812 | 1690 | 0.982 | > 2000 | 0.591 | 29.8 | 0.768 | 1130 | 0.642 | 332
2 | GCIY (stomach, adherent) | 0.979 | > 10000 | 0.933 | > 128 | 0.846 | 8780 | 0.781 | 9470 | 0.245 | 52.6 | 0.378 | 550 | 0.944 | > 16000 | 0.973 | > 1020 | 0.919 | > 12.5 |  |  | 0.732 | 807 | 0.968 | > 2000 | 0.774 | 114 | 0.9 | > 2560 | 0.755 | 761
3 | GI-ME-N (neuroblastoma, adherent) | 0.977 | > 10000 | 0.616 | 18.7 | 0.759 | 4720 | 0.936 | > 20000 | 0.053 | < 20 | 0.316 | 314 | 0.94 | > 16000 | 0.944 | > 1020 | 0.717 | 4.07 | 0.955 | > 1000 | 0.718 | 844 | 0.962 | > 2000 | 0.708 | 77.2 | 0.761 | 1240 | 0.763 | 979
4 | H9 (lymphoid neoplasm, suspension) | 0.992 | > 10000 | 0.826 | 59.8 | 0.989 | > 10000 | 0.982 | > 20000 | 0.987 | > 5120 | 0.987 | > 20000 | 0.986 | > 16000 | 0.99 | > 1020 | 0.901 | 11 | 0.983 | > 1000 | 0.534 | 195 | 0.991 | > 2000 | 0.769 | 80.5 | 0.992 | > 2560 | 0.899 | 1730

Reference: the supplement of paper PMC4967469
